In patent US12286661B2, “Methods for making high intensity sweeteners” (Firmenich Incorporated, priority 2018, dated 2025):

B1: SEQ ID NO 952: fusion protein having cucurbitadienol synthase activity (protein)
chain: MTGLNGDADSDLLGSAAPGSGSGSGMWRLKVGKESVGEKEEKWIKSISNHLGRQVWEFCSGENENDDDEAIAVANNSASKFENARNHFRNNRFHRKQSSDLFLAIQCEKEIIRNGAKNEGTTKVKEGEDVKKEAVKNTLERALSFYSAVQTSDGNWASDLGGPMFLLPGLVIALYVTGVLNSVLSKHHRQEMCRYIYNHQNEDGGWGLHIEGSSTMFGSALNYVALRLLGEAADGGEHGAMTKARSWILERGGATAITSWGKLWLSVLGVYEWSGNNPLPPEFWLLPYSLPFHPGRMWCHCRMVYLPMSYLYGKRFVGPITPIVLSLRKELYTIPYHEIDWNRSRNTCAKEDLYYPHPKMQDILWGSIYHVYEPLFSGWPGKRLREKAMKIAMEHIHYEDENSRYICLGPVNKVLNMLCCWVEDPYSDAFKFHLQRIPDYLWLAEDGMRMQGYNGSQLWDTAFSIQAIISTKLIDTFGPTLRKAHHFVKHSQIQEDCPGDPNVWFRHIHKGAWPFSTRDHGWLISDCTAEGLKASLMLSKLPSKIVGEPLEKNRLCDAVNVLLSLQNENGGFASYELTRSYPWLELINPAETFGDIVIDYSYVECTSATMEALALFKKLHPGHRTKEIDAAIAKAANFLENMQKTDGSWYGCWGVCFTYAGWFGIKGLVAAGRTYNNCVAIRKACNFLLSKELPGGGWGESYLSCQNKVYTNLEGNKPHLVNTAWVMMALIEAGQGERDPAPLHRAARLLINSQLESGDFPQQEIMGVFNKNCMITYAAYRNIFPIWALGEYSHRVLDM
modifications: SS3a-A2 Full Gene AA seq
B2: SEQ ID NO 944: fusion protein having cucurbitadienol synthase activity (protein)
chain: MAKEDTVKLKRGSAAPGSGSGSGMWRLKVGKESVGEKEEKWIKSISNHLGRQVWEFCSGENENDDDEAIAVANNSASKFENARNHFRNNRFHRKQSSDLFLAIQCEKEIIRNGAKNEGTTKVKEGEDVKKEAVKNTLERALSFYSAVQTSDGNWASDLGGPMFLLPGLVIALYVTGVLNSVLSKHHRQEMCRYIYNHQNEDGGWGLHIEGSSTMFGSALNYVALRLLGEAADGGEHGAMTKARSWILERGGATAITSWGKLWLSVLGVYEWSGNNPLPPEFWLLPYSLPFHPGRMWCHCRMVYLPMSYLYGKRFVGPITPIVLSLRKELYTIPYHEIDWNRSRNTCAKEDLYYPHPKMQDILWGSIYHVYEPLFSGWPGKRLREKAMKIAMEHIHYEDENSRYICLGPVNKVLNMLCCWVEDPYSDAFKFHLQRIPDYLWLAEDGMRMQGYNGSQLWDTAFSIQAIISTKLIDTFGPTLRKAHHFVKHSQIQEDCPGDPNVWFRHIHKGAWPFSTRDHGWLISDCTAEGLKASLMLSKLPSKIVGEPLEKNRLCDAVNVLLSLQNENGGFASYELTRSYPWLELINPAETFGDIVIDYSYVECTSATMEALALFKKLHPGHRTKEIDAAIAKAANFLENMQKTDGSWYGCWGVCFTYAGWFGIKGLVAAGRTYNNCVAIRKACNFLLSKELPGGGWGESYLSCQNKVYTNLEGNKPHLVNTAWVMMALIEAGQGERDPAPLHRAARLLINSQLESGDFPQQEIMGVFNKNCMITYAAYRNIFPIWALGEYSHRVLDM
modifications: SS3b-B10 Full Gene AA seq
B3: SEQ ID NO 956: fusion protein having cucurbitadienol synthase activity (protein)
chain: MASNQLEPLQTGSAAPGSGSGSGMWRLKVGKESVGEKEEKWIKSISNHLGRQVWEFCSGENENDDDEAIAVANNSASKFENARNHFRNNRFHRKQSSDLFLAIQCEKEIIRNGAKNEGTTKVKEGEDVKKEAVKNTLERALSFYSAVQTSDGNWASDLGGPMFLLPGLVIALYVTGVLNSVLSKHHRQEMCRYIYNHQNEDGGWGLHIEGSSTMFGSALNYVALRLLGEAADGGEHGAMTKARSWILERGGATAITSWGKLWLSVLGVYEWSGNNPLPPEFWLLPYSLPFHPGRMWCHCRMVYLPMSYLYGKRFVGPITPIVLSLRKELYTIPYHEIDWNRSRNTCAKEDLYYPHPKMQDILWGSIYHVYEPLFSGWPGKRLREKAMKIAMEHIHYEDENSRYICLGPVNKVLNMLCCWVEDPYSDAFKFHLQRIPDYLWLAEDGMRMQGYNGSQLWDTAFSIQAIISTKLIDTFGPTLRKAHHFVKHSQIQEDCPGDPNVWFRHIHKGAWPFSTRDHGWLISDCTAEGLKASLMLSKLPSKIVGEPLEKNRLCDAVNVLLSLQNENGGFASYELTRSYPWLELINPAETFGDIVIDYSYVECTSATMEALALFKKLHPGHRTKEIDAAIAKAANFLENMQKTDGSWYGCWGVCFTYAGWFGIKGLVAAGRTYNNCVAIRKACNFLLSKELPGGGWGESYLSCQNKVYTNLEGNKPHLVNTAWVMMALIEAGQGERDPAPLHRAARLLINSQLESGDFPQQEIMGVFNKNCMITYAAYRNIFPIWALGEYSHRVLDM
modifications: SS3f-A8 Full Gene AA seq
B4: SEQ ID NO 940: fusion protein having cucurbitadienol synthase activity (protein)
chain: MWNKTKKTQGSAAPGSGSGSGMWRLKVGKESVGEKEEKWIKSISNHLGRQVWEFCSGENENDDDEAIAVANNSASKFENARNHFRNNRFHRKQSSDLFLAIQCEKEIIRNGAKNEGTTKVKEGEDVKKEAVKNTLERALSFYSAVQTSDGNWASDLGGPMFLLPGLVIALYVTGVLNSVLSKHHRQEMCRYIYNHQNEDGGWGLHIEGSSTMFGSALNYVALRLLGEAADGGEHGAMTKARSWILERGGATAITSWGKLWLSVLGVYEWSGNNPLPPEFWLLPYSLPFHPGRMWCHCRMVYLPMSYLYGKRFVGPITPIVLSLRKELYTIPYHEIDWNRSRNTCAKEDLYYPHPKMQDILWGSIYHVYEPLFSGWPGKRLREKAMKIAMEHIHYEDENSRYICLGPVNKVLNMLCCWVEDPYSDAFKFHLQRIPDYLWLAEDGMRMQGYNGSQLWDTAFSIQAIISTKLIDTFGPTLRKAHHFVKHSQIQEDCPGDPNVWFRHIHKGAWPFSTRDHGWLISDCTAEGLKASLMLSKLPSKIVGEPLEKNRLCDAVNVLLSLQNENGGFASYELTRSYPWLELINPAETFGDIVIDYSYVECTSATMEALALFKKLHPGHRTKEIDAAIAKAANFLENMQKTDGSWYGCWGVCFTYAGWFGIKGLVAAGRTYNNCVAIRKACNFLLSKELPGGGWGESYLSCQNKVYTNLEGNKPHLVNTAWVMMALIEAGQGERDPAPLHRAARLLINSQLESGDFPQQEIMGVFNKNCMITYAAYRNIFPIWALGEYSHRVLDM
modifications: SS3b-C1 Full Gene AA seq
B5: SEQ ID NO 936: fusion protein having cucurbitadienol synthase activity (protein)
chain: MWRLKVGKESVGEKEEKWIKSISNHLGRQVWEFCSGENENDDDEAIAVANNSASKFENARNHFRNNRFHRKQSSDLFLAIQCEKEIIRNGAKNEGTTKVKEGEDVKKEAVKNTLERALSFYSAVQTSDGNWASDLGGPMFLLPGLVIALYVTGVLNSVLSKHHRQEMCRYIYNHQNEDGGWGLHIEGSSTMFGSALNYVALRLLGEAADGGEHGAMTKARSWILERGGATAITSWGKLWLSVLGVYEWSGNNPLPPEFWLLPYSLPFHPGRMWCHCRMVYLPMSYLYGKRFVGPITPIVLSLRKELYTIPYHEIDWNRSRNTCAKEDLYYPHPKMQDILWGSIYHVYEPLFSGWPGKRLREKAMKIAMEHIHYEDENSRYICLGPVNKVLNMLCCWVEDPYSDAFKFHLQRIPDYLWLAEDGMRMQGYNGSQLWDTAFSIQAIISTKLIDTFGPTLRKAHHFVKHSQIQEDCPGDPNVWFRHIHKGAWPFSTRDHGWLISDCTAEGLKASLMLSKLPSKIVGEPLEKNRLCDAVNVLLSLQNENGGFASYELTRSYPWLELINPAETFGDIVIDYSYVECTSATMEALALFKKLHPGHRTKEIDAAIAKAANFLENMQKTDGSWYGCWGVCFTYAGWFGIKGLVAAGRTYNNCVAIRKACNFLLSKELPGGGWGESYLSCQNKVYTNLEGNKPHLVNTAWVMMALIEAGQGERDPAPLHRAARLLINSQLESGDFPQQEIMGVFNKNCMITYAAYRNIFPIWALGEYSHRVLDMGSAAPGSGSGSGMNSNEDIIPEL
modifications: SS2c-A10b Full Gene AA seq
B6: SEQ ID NO 948: fusion protein having cucurbitadienol synthase activity (protein)
chain: MSFQIETVRTGSAAPGSGSGSGMWRLKVGKESVGEKEEKWIKSISNHLGRQVWEFCSGENENDDDEAIAVANNSASKFENARNHFRNNRFHRKQSSDLFLAIQCEKEIIRNGAKNEGTTKVKEGEDVKKEAVKNTLERALSFYSAVQTSDGNWASDLGGPMFLLPGLVIALYVTGVLNSVLSKHHRQEMCRYIYNHQNEDGGWGLHIEGSSTMFGSALNYVALRLLGEAADGGEHGAMTKARSWILERGGATAITSWGKLWLSVLGVYEWSGNNPLPPEFWLLPYSLPFHPGRMWCHCRMVYLPMSYLYGKRFVGPITPIVLSLRKELYTIPYHEIDWNRSRNTCAKEDLYYPHPKMQDILWGSIYHVYEPLFSGWPGKRLREKAMKIAMEHIHYEDENSRYICLGPVNKVLNMLCCWVEDPYSDAFKFHLQRIPDYLWLAEDGMRMQGYNGSQLWDTAFSIQAIISTKLIDTFGPTLRKAHHFVKHSQIQEDCPGDPNVWFRHIHKGAWPFSTRDHGWLISDCTAEGLKASLMLSKLPSKIVGEPLEKNRLCDAVNVLLSLQNENGGFASYELTRSYPWLELINPAETFGDIVIDYSYVECTSATMEALALFKKLHPGHRTKEIDAAIAKAANFLENMQKTDGSWYGCWGVCFTYAGWFGIKGLVAAGRTYNNCVAIRKACNFLLSKELPGGGWGESYLSCQNKVYTNLEGNKPHLVNTAWVMMALIEAGQGERDPAPLHRAARLLINSQLESGDFPQQEIMGVFNKNCMITYAAYRNIFPIWALGEYSHRVLDM
modifications: SS3a-D8Full Gene AA seq

What follows are molecules tested on cucurbitadienol synthase activity (assay: Cucurbitadienol synthase activities of fusion proteins in yeast strain with oxidosqualene boost, LCMS). Conditions: average % activities over the average activities of the parent enzyme (Cucumis melo cucurbitadienol synthase).
Format: cell-based, S. cerevisiae
Method: For analyzing cucurbitadienol, the first LCMS method included the use of C4 2.1×100 mm column, gradient 1 to 95% B for 6 minutes, and at flow rate of 0.55 ml/min; and the second LCMS method included the use of Waters Acquity UPLC Protein BEH C4 2.1×100 […], 1.7 μm, with guard, 62 to 67% B for 2 min, 100% B for 1 min, and at flow rate of 0.9 ml/min and ESI source positive single ion monitoring of 427 and 409.
The gene encoding for a cucurbitadienol synthase form Cucumis melo was codon optimized (SEQ ID: 907) and used as a starting point for generating a library of modifications. Modifications were introduced through standard molecular biology techniques consisting of fusion peptides at the N-terminus (i.e., 5′) or C-terminus (i.e., 3′) end of the enzyme. Plasmids libraries of modified cucurbitadienol synthase genes were transformed into a yeast strain with oxidosqualene boost. Enzyme activities were measured by ratios of peak heights or areas of 409 and 427 positive mass fragments at the expected retention times for cucurbitadienol vs. an internal standard using LCMS method 2 described above. Enzyme performance were scored as average % activities over the average activities of the parent enzyme (n=8). Step 1 sequences of the enzymes and the sequences that encode the enzyme can be found in SEQ ID NOs: 951-1012. Step 1 sequence also include the fusions SS2c-G10, SS2e-A7b, SS2d-G11. SS2e-A7a, SS4d-G5, SS4d-C7, SS3b-D8, and SS2c-A10a are disclosed herein.
A collection or library of S. cerevisiae in-frame fusion polynucleotdies for a cucurbitadienol synthase gene (DNA coding sequence provided in SEQ ID NO: 907, and protein sequence provided in SEQ ID NO: 902) was prepared. The in-frame fusion polynucleotides were cloned into a yeast vector molecule to generate fusion proteins.
Various fusion proteins were generated and tested for cucurbitadienol synthase activities.

First: B1
Second: B2
The “Activity (as compared to the parent)” value of the first is lower: 90% for the first, 107% for the second.

Going from B3 to B4, the “Activity (as compared to the parent)” value rises from 85% to 109%.

Compared with B5, B6 is lower in “Activity (as compared to the parent)” value: 126% for the first, 102% for the second.
